{"source": "PubChem BioAssay AID1963838", "about": "(Molecular Pharmacology Branch, DTP, NCI, 2024)", "tested_on": "855422-203-R-J1-PDC complex spheroid viability", "assay": "Anticancer human tumor 855422-203-R-J1-PDC patient-derived bladder carcinoma cell line growth inhibition [POLQ]", "details": "stronger effect = lower value", "protocol": "Multicellular complex tumor spheroid response to Polymerase (POL) inhibitors (novobiocin, ART-558, RP6685) in combination with a variety of drugs and investigational agents in selected tumor cell lines\nThe POL inhibitors (novobiocin, ART-558, and RP6685) were evaluated both individually and in combination with standard of care and investigational anticancer small molecules within a complex spheroid model of solid tumors. . Complex spheroids include a stromal component modeled by human endothelial cells (HUVEC) and fibroblasts modeled by human mesenchymal stem cells (MSCs). The concentration ranges selected for each drug and investigational agent were based upon clinically achievable concentrations if the clinical Cmax of the agent was known.\nCompounds. The drugs and investigational agents: novobiocin (NSC847541), ART-558 (NSC835418), RP-6685 (NSC848927), peposertib (NSC802822), ceralasertib (NSC780249), elimusertib (NSC800525), camonsertib (NSC841442), AZD-1390 (NSC803789), olaparib (NSC753686), talazoparib (NSC767125), rucaparib (NSC756644), sotorasib (NSC818433), MRTX-1133 (NSC836407), SN-38 (NSC673596), topotecan (NSC609699), epotoside (NSC141540), doxorubicin (NSC123127), gemcitabine (NSC613327), 5-fluorouracil (NSC19893), paclitaxel (NSC125973), vemurafenib (NSC761431), MSA-2 (NSC828583), SN-011 (NSC837082), adavosertib (NSC754352), prexasertib (NSC758257), carboplatin (NSC241240) and oxaliplatin (NSC266046), were obtained from the National Cancer Institute (NCI) Developmental Therapeutics Program Chemical Repository (21). The FDA-approved anticancer drug set is available from the Developmental Therapeutics Program at https://dtp.cancer.gov/organization/dscb/obtaining/. […] If the clinical Cmax for an agent had not been determined, the highest concentration tested was 10 microM, except for SN-38, which was tested at a high concentration of 1 microM. […]", "note": "Some entries of the source have several records that differ or are many. This is not the full list of results. An entry can have further records. The records of an entry repeat one measurement (runs, samples, wells, individuals or studies). Counts like (3×) count equal records among those shown.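 Also: spheroids exposed to compounds for seven days before readout.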", "data": [{"smiles": "COC1C(OC(N)=O)C(O)C(Oc2ccc3c(O)c(NC(=O)c4ccc(O)c(CC=C(C)C)c4)c(=O)oc3c2C)OC1(C)C", "note": "(stereo not drawn)", "values": [{"measurement": "viability, T/C", "setting": "compound alone 10 µM", "value": "104, 100, 103, 88.9, 108, 105, 110, 99.3, 116, 94.2, 99 (2×), 107%"}]}, {"smiles": "Cc1cccc(N(C)C(=O)C2C(O)CCN2c2nc(C)cc(C(F)(F)F)c2C#N)c1", "note": "(stereo not drawn)", "values": [{"measurement": "viability, T/C", "setting": "compound alone 0.1 µM", "value": "101, 86.3, 111, 99.8, 89.3, 99.7, 114, 109 (3×), 93.1, 86.2, 100%"}]}, {"smiles": "Nc1ccc(C#CCN(C(=O)Cc2ncc(C(F)(F)F)cc2C(F)(F)F)c2ccc(F)cc2)nn1", "values": [{"measurement": "viability, T/C", "setting": "compound alone 1 µM", "value": "108, 101, 99.8, 113 (2×), 104, 95.3, 94.9, 120, 94.7, 97.2, 109, 95.5%"}]}]}
